Out of some 43,000 compounds screened, about 200 (0.47%) were called active. About 12% were inconclusive and are not listed. Calls come from the whole dose curve; as a rule, active = well fitted cell-killing curve with a large enough effect; inconclusive = small, poorly fitted or top-dose-only effect, or effect the other way; inactive = flat fitted curve, though single readings scatter. The list shows a part of the results.
% is set by controls: 0 for no effect and ±100 for the full control effect.

A short description of the experiment: Cell viability qHTS assay in S16 Pmp22-F2sN cells. Note: nearly all actives have a fitted effect of over 65% in size. The note with it: S16 Pmp22-F2sN Schwann cells viability, CellTiter-Glo, 24 h; series mostly up to 57.5 µM; activity change, negative = cytotoxicity: at the top concentration. In a few lines: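 Used to flag compounds lowering reporter output through toxicity, this quantitative HTS measures ATP-based CellTiter-Glo luminescence in S16 Pmp22-F2sN Schwann cells after 24 h compound exposure at 37C.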
As to `COc1ccc(C)cc1NC(=O)CC1NCCNC1=O` (stereo not drawn), the “activity change, negative = cytotoxicity” value is inactive: -20.5%.

`CC(=O)c1ccc(N2CCN(c3ccc4cc(S(=O)(=O)N5CCCCC5)ccc4n3)CC2)cc1`: the “activity change, negative = cytotoxicity” value was inactive: 12.6%.

In the case of `CCOC(=O)c1ccc(NC(=O)CSc2nc3ccccc3c(=O)n2CCC(=O)NC2CCCCC2)cc1`, the “activity change, negative = cytotoxicity” value was inactive: 6.82%.

Regarding `COc1ccc(-c2nc(CS(=O)(=O)CC(=O)NCCc3ccc(C)cc3)c(C)o2)cc1`, the “activity change, negative = cytotoxicity” value is inactive: -1.22%.

Regarding `CCC(=O)C1=C(c2ccc(OC)c(OC)c2)N(C(=O)CC)n2c(nnc2-c2ccc(C)cc2)S1`, the “activity change, negative = cytotoxicity” value is inactive: 0.721%.

With `CCCOc1ccc(C2c3c(-c4c(C)cc(C)cc4O)n[nH]c3C(=O)N2CCO)cc1` (stereo not drawn), the “activity change, negative = cytotoxicity” value is inactive: 2.51%.

Turning to `Cc1ccc(Cl)cc1NC(=O)c1sc(-n2nc(C)c(Cc3ccc4c(c3)OCO4)c2C)nc1C`, the “activity change, negative = cytotoxicity” value is inactive: -4.01%.

For `CCOc1ccc(-c2cc3nc(C4CCN(C(=O)OC(C)(C)C)CC4)c(C(=O)Nc4cc(OC)ccc4OC)cn3n2)cc1`, the “activity change, negative = cytotoxicity” value is inactive: -4.12%.

`Cc1nn(C)c2c1c(-c1ccccc1)cc(=O)n2CC(=O)NC(C)c1ccccc1` (stereo not drawn): the “activity change, negative = cytotoxicity” value is inactive: -17.8%.

As to `Cc1ccc(Cl)cc1NC(=O)Nc1cccc(OCc2cc(=O)n3ccccc3n2)c1`, the “activity change, negative = cytotoxicity” value is inactive: 13.6%.

For the compound `COc1ccc(-n2c(-c3ccco3)nc3c(cnn3-c3ccccc3Cl)c2=O)cc1`, the “activity change, negative = cytotoxicity” value is inactive: 9.42%.

As to `CCCCCn1c(CN2CCN(c3ccc(OC)cc3)CC2)nc2c1c(=O)[nH]c(=O)n2C`, the “activity change, negative = cytotoxicity” value is inactive: -12.4%.

Take `O=C(Cn1c(=O)n(-c2ccccc2)c(=O)c2c3c(sc21)CCCC3)Nc1ccc(F)cc1F`: the “activity change, negative = cytotoxicity” value is inactive: 5.89%.

Regarding `COc1cccc(CNC(=O)c2cccc(-n3c(C)nc4cccnc43)c2)c1OC`, the “activity change, negative = cytotoxicity” value was inactive: -0.343%.

As for `Cc1cc(=O)n(Cc2ccc(Cl)cc2)c2c1c(C)nn2-c1ccccc1`, the “activity change, negative = cytotoxicity” value is inactive: 6.51%.

Consider `COc1ccc(OC)c(S(=O)(=O)NCCS(=O)(=O)N2CCN(c3ccccc3)CC2)c1`, for which the “activity change, negative = cytotoxicity” value is inactive: 6.37%.

As for `O=C(CSc1cn(CC(=O)N2CCCCC2)c2ccccc12)Nc1ccccc1`, the “activity change, negative = cytotoxicity” value was inactive: 1.11%.

`COc1ccc(OC)c(C2=NS(=O)(=O)N(C)C(C(=O)Nc3ccc(F)cc3F)=C2)c1`: the “activity change, negative = cytotoxicity” value was inactive: -15.7%.

`Cc1ccc(C)c(NC(=O)C2CCCN(c3ncnc4onc(C)c34)C2)c1` (stereo not drawn): the “activity change, negative = cytotoxicity” value was inactive: -3.34%.

Consider `Cc1nc(-c2ccccc2)sc1-c1ccc(SCC(=O)NCc2ccccc2Cl)nn1`, for which the “activity change, negative = cytotoxicity” value was inactive: -0.433%.

With `O=C(NCc1noc2ccccc12)N1CCN(c2ccccc2)CC1`, the “activity change, negative = cytotoxicity” value is inactive: -1.84%.

For `O=C(NCC(c1ccco1)S(=O)(=O)c1cccs1)c1ccc(F)c(F)c1` (stereo not drawn), the “activity change, negative = cytotoxicity” value was inactive: -27.2%.

As to `CCc1ccccc1NC(=O)N1CCCn2nc(C)cc21`, the “activity change, negative = cytotoxicity” value was inactive: -1.1%.

Take `CCOC(=O)c1ccc(NC(=O)Cn2cc(C(=O)C3CC3)c3ccccc32)cc1`: the “activity change, negative = cytotoxicity” value was inactive: 7.96%.

For `C=CCc1cccc2cc(-c3nc4ccc(C)cc4[nH]3)c(=O)oc12`, the “activity change, negative = cytotoxicity” value is inactive: 1.11%.

On to `COc1ccccc1CNC(=O)CCc1c(C)c2cc3c(C)c(C)oc3cc2oc1=O`, for which the “activity change, negative = cytotoxicity” value is inactive: -2.22%.

`COc1ccc(CCNC(=O)c2ccc3c(c2)N(Cc2ccc(F)cc2)C(=O)c2ccccc2S3(=O)=O)cc1OC`: the “activity change, negative = cytotoxicity” value is inactive: -5.84%.

Turning to `COc1cc(OC)cc(C(=O)Nc2ccc(-c3nc4ccccc4s3)cc2C)c1`, the “activity change, negative = cytotoxicity” value is inactive: 14.6%.

As for `COCC(=O)n1nc(-c2ccco2)nc1NCc1ccccc1Cl`, the “activity change, negative = cytotoxicity” value is inactive: -0.345%.

Turning to `CCOC(=O)c1ccc(NC(=O)CCCn2c(=O)c3cccn3c3ccccc32)cc1`, the “activity change, negative = cytotoxicity” value is inactive: 13.4%.

In the case of `Cc1ccccc1Nc1c(-c2c(F)cccc2Cl)nc2ccc(Br)cn12`, the “activity change, negative = cytotoxicity” value is inactive: 1.31%.

With `Cc1c(C(=O)Nc2cccc(C(F)(F)F)c2)sc2nc[nH]c(=O)c12`, the “activity change, negative = cytotoxicity” value was inactive: -26.4%.

With `COc1ccc(C(=O)/C=C/c2cn(CC(O)CN3CCc4ccccc43)c3ccccc23)cc1OC` (stereo not drawn), the “activity change, negative = cytotoxicity” value is inactive: 5.4%.

For the compound `COCc1nnc(NC(=O)c2cc(OC)c(OC)c(OC)c2)s1`, the “activity change, negative = cytotoxicity” value was inactive: -6.27%.

On to `Cc1ccc(NC(=O)C2CCCN(S(=O)(=O)c3c(C)n[nH]c3C)C2)c(C)c1` (stereo not drawn), for which the “activity change, negative = cytotoxicity” value is inactive: -6.02%.

As for `COc1cccc(CNS(=O)(=O)c2cnc(N)nc2)c1`, the “activity change, negative = cytotoxicity” value was inactive: 12.4%.

Regarding `CC1CCCN(c2cc3c(cc2F)c(=O)c(S(=O)(=O)c2cccc(Cl)c2)cn3Cc2ccccc2)C1` (stereo not drawn), the “activity change, negative = cytotoxicity” value is inactive: -3.19%.

Consider `O=C(Nc1c(C(=O)N2CCN(c3ccccc3F)CC2)oc2ccccc12)c1cccc(F)c1`, for which the “activity change, negative = cytotoxicity” value is inactive: 1.79%.

Take `CC(C)NC(=O)c1ccc(Cn2c(SCc3ccc(F)cc3)nc3cccnc32)cc1`: the “activity change, negative = cytotoxicity” value was inactive: -15.5%.

`O=C(CCn1c(=O)c2cccn2c2cccnc21)N1CCN(c2cccc(C(F)(F)F)c2)CC1`: the “activity change, negative = cytotoxicity” value was inactive: 1.19%.

Consider `COc1ccc(CCNC(=O)C(=O)NCC(c2ccco2)S(=O)(=O)c2ccc(C)cc2)cc1` (stereo not drawn), for which the “activity change, negative = cytotoxicity” value is inactive: -25.6%.

As for `COc1ccc(NC(=O)C(NS(=O)(=O)c2cccc3nsnc23)C(C)C)cc1` (stereo not drawn), the “activity change, negative = cytotoxicity” value is inactive: 12.1%.

For the compound `O=C(Cn1c(=O)oc2cc(S(=O)(=O)NCc3ccccc3)ccc21)Nc1cccc(F)c1`, the “activity change, negative = cytotoxicity” value was inactive: 9.16%.

Take `COC(=O)c1ccc(C2Nc3c(C)cccc3-c3cc(C)nn32)cc1` (stereo not drawn): the “activity change, negative = cytotoxicity” value is inactive: -22.9%.

In the case of `COc1ccccc1CNc1nc2c(S(=O)(=O)c3ccc(C)c(C)c3)nnn2c2ccc(Cl)cc12`, the “activity change, negative = cytotoxicity” value was inactive: 1.6%.

Take `O=C(c1ccc(F)cc1)c1cn(Cc2ccccc2)c2cc3c(cc2c1=O)OCO3`: the “activity change, negative = cytotoxicity” value is inactive: -7.63%.

As for `CCOC(=O)c1c(NC(=O)c2cc(-c3ccc(Br)cc3)on2)sc(C(C)=O)c1C`, the “activity change, negative = cytotoxicity” value is inactive: -1.59%.

With `COc1ccc(NC(=O)c2cc3ccccc3o2)c(OC)c1`, the “activity change, negative = cytotoxicity” value was inactive: 7.22%.

The values above are taken from PubChem BioAssay AID1508642 (National Center for Advancing Translational Sciences (NCATS), 2021).
